Ten compounds from the antibiotic and cytotoxicity screens of Wong et al. (2023) can be followed below.

One test relates to HSkMC. Briefly: cytotoxicity call (relative viability < 0.9). The conditions noted are these: 10 µM.
In a further test the test system is HepG2. The experiment in a line: cytotoxicity call (relative viability < 0.9). The conditions noted are these: 10 µM.
The next test concerns S. aureus RN4220. The experiment in a line: growth inhibition call (relative growth <= 0.2). The conditions noted are these: 50 µM.

The list shows a part of the results.

`CC(C)NC(=O)Nc1cccc2c1O[C@@H](CN(C)S(=O)(=O)c1ccccc1)[C@H](C)CN([C@@H](C)CO)C2=O`: the cytotoxicity call with HSkMC and with HepG2 was “inactive” each time. For the same compound, the growth inhibition call in the test on S. aureus RN4220 was “inactive”.
`CO[C@H]1CN(C)C(=O)c2cc(NS(C)(=O)=O)ccc2OC[C@H](C)N(C(=O)c2ccc3c(c2)OCO3)C[C@@H]1C`: the cytotoxicity call with HSkMC and in the test on HepG2 was “inactive” in each case. In addition, the growth inhibition call in the test with S. aureus RN4220 was “inactive”.
Regarding `C[C@H]1CN([C@@H](C)CO)S(=O)(=O)c2ccc(C#Cc3ccncc3)cc2O[C@H]1CN(C)S(=O)(=O)c1ccccc1`, the cytotoxicity call in the test on HSkMC was “inactive”. In addition, the cytotoxicity call in the test with HepG2 is “active”. The growth inhibition call with S. aureus RN4220 is “inactive”.
On to `O=C(C[C@H]1CC[C@@H]2[C@H](COC[C@H](O)CN2S(=O)(=O)c2ccc(Cl)cc2)O1)NCCN1CCCCC1`, for which the cytotoxicity call in the test with HSkMC and in the test on HepG2 was “inactive” each time. In addition, the growth inhibition call in the test on S. aureus RN4220 is “inactive”.
Turning to `CN1C(=O)c2cc(NC(=O)c3cccs3)ccc2OC[C@@H]2O[C@@H](CC(=O)NCCN3CCCCC3)CC[C@@H]21`, the cytotoxicity call with HSkMC and in the test with HepG2 was “inactive” in each case. Further, the growth inhibition call in the test with S. aureus RN4220 is “inactive”.
Consider `C[C@H](CO)N1C[C@H](C)[C@@H](CN(C)C(=O)c2cnccn2)Oc2cc(Br)ccc2S1(=O)=O`, for which the cytotoxicity call in the test with HSkMC and in the test with HepG2 was “inactive” throughout. Besides, in the test on S. aureus RN4220, the growth inhibition call was “inactive”.
On to `C[C@@H]1CN([C@H](C)CO)C(=O)Cc2cc(NC(=O)CCN3CCOCC3)ccc2O[C@@H]1CN(C)S(=O)(=O)c1ccc(F)cc1`, for which the cytotoxicity call in the test on HSkMC and with HepG2 was “inactive” in each case. Moreover, the growth inhibition call with S. aureus RN4220 is “inactive”.
`Nc1cc(=O)nc2sc(C3CC3)nn12`: the cytotoxicity call with HSkMC and in the test on HepG2 was “inactive” each time. Moreover, in the test on S. aureus RN4220, the growth inhibition call is “inactive”.
Turning to `C=CC(=O)N[C@H]1CCCN(CC)C1`, the cytotoxicity call in the test on HSkMC (human skeletal muscle cells) and in the test with HepG2 was “inactive” throughout. Also, in the test with S. aureus RN4220, the growth inhibition call was “inactive”.
Turning to `C[C@@H]1CN([C@H](C)CO)S(=O)(=O)c2ccc(C#C[C@@H](C)O)cc2O[C@@H]1CN(C)C(=O)Cc1ccccn1`, the cytotoxicity call with HSkMC and with HepG2 was “inactive” throughout. The growth inhibition call with S. aureus RN4220 is “inactive”.
